Experimental data as given in ChEMBL document CHEMBL4888484, “Replenishing the malaria drug discovery pipeline: Screening and hit evaluation of the MMV Hit Generation Library 1 (HGL1) against asexual blood stage Plasmodium falciparum ,using a nano luciferase reporter read-out” (2022).
“And” between values parts separate entries of the source, which are not always exact repeats. Identical values can stand only once. About 540 (0.36%) of roughly 150,000 compounds showed an effect of 50% or more. The list shows a part of the results.

Tested on: Plasmodium falciparum
Assay: Primary screen in NF54 nanoGlo assay, in single point, at 2uM, 72h; a lower Z score goes with more inhibition
Type: functional, Erythrocyte
Details: timepoint 72 hour

## Cc1ccccc1Cc1c(C(=O)NCc2ccon2)c(=O)cc(C)n1Cc1ccccn1
  % Inhibition: -3%
  Z score: 0.4

## Cc1ccc(C)c(C(=O)[C@@H](N)CC(C)C)c1
  % Inhibition: -5%
  Z score: 0.68

## Cc1cccc(OCC(=O)N2CCN(Cc3ncnn3C(C)(C)C)CC2)c1C
  % Inhibition: -33%
  Z score: 3.89

## C1CCC(NC2CCC3(CC2)OCCO3)CC1
  % Inhibition: -6%
  Z score: 0.86

## O=C(c1ccccn1)N1C[C@H]2CC[C@@H](C1)N(CC1CCCCC1)C2
  % Inhibition: -7%
  Z score: 1.22

## Cc1[nH]c2ccccc2c1CC1C(=O)N(C)C(=O)N(C)C1=O
  % Inhibition: 9%
  Z score: -1.32

## Cc1ccc([C@H]2CN(S(=O)(=O)C3CC3)[C@@H]3C4CCN(CC4)[C@H]23)cc1
  % Inhibition: -2%
  Z score: 0.32

## CCC1(CC)O[C@@H](c2cccnc2)Nc2ccccc21
  % Inhibition: -5%
  Z score: 0.65

## Cn1c(O)c(Cc2ccc(OCc3ccccc3)cc2)c(=O)n(C)c1=O
2 µM
  % Inhibition: -10% and 6%

## OC[C@]12COCCN1CCN(c1nccc(C(F)(F)F)n1)C2
  % Inhibition: -1%
  Z score: 0.27

## Cc1ncsc1CN1C[C@@H]2CC[C@H]1CN(Cc1c(C)noc1C)C2
  % Inhibition: -5%
  Z score: 0.89

## O=C(NCc1nccs1)N1C2CCC1C(CO)C2 (stereo not drawn)
  % Inhibition: -8%
  Z score: 0.75

## CC(C)(CN)c1c(Cl)cccc1Cl
  % Inhibition: -5%
  Z score: 0.84

## CCN1CCN(C(=O)c2cccc3[nH]c(=O)oc23)[C@@H](C)C1
  % Inhibition: -12%
  Z score: 1.57

## CCc1nc(CNC(=O)c2ccc3c(c2)CCNCC3)cs1
  % Inhibition: -1%
  Z score: 0.25

## O[C@@]1(c2ccccc2)CCN[C@H]2CCCC[C@@H]21
  % Inhibition: -21%
  Z score: 2.65

## CN1CC[C@@H](c2ccc(F)cc2)[C@H](CO)C1
  % Inhibition: 0%
  Z score: 0.03

## CCn1nc(C)c(Br)c1C(=O)N1CCN(CCOC(c2ccccc2)c2ccccc2)CC1
  % Inhibition: 1%
  Z score: -0.12

## O=C(Cc1ccc(F)cc1F)N1CCN(CCO)[C@@H]2CS(=O)(=O)C[C@@H]21
  % Inhibition: -23%
  Z score: 2.48

## Cc1ccc(S(=O)(=O)NCC#CCN2CCCC2)s1
  % Inhibition: -6%
  Z score: 1.09

## C[C@H]1CN(c2ncnc3[nH]ccc23)CCN1
  % Inhibition: -1%
  Z score: 0.21

## COc1ccccc1[C@@H]1CC(c2c(O)n(C)c(=O)n(C)c2=O)=NN1
  % Inhibition: 1%
  Z score: -0.15

## CC(C)CCCN1C(=O)C2(Cc3ccccc3N3CCN(c4ccccc4)CC32)C(=O)N=C1O (stereo not drawn)
  % Inhibition: -7%
  Z score: 0.61

## c1cnc2c([C@@H]3NCCc4[nH]cnc43)cnn2c1
  % Inhibition: -17%
  Z score: 1.52

## CC(c1ccccc1)C(NC(=O)c1ccn(C(C)C)n1)C(N)=O (stereo not drawn)
  % Inhibition: -9%
  Z score: 0.97

## O=C(Cn1cc(-c2ccc(F)cc2)oc1=O)NCc1ccccc1Cl
  % Inhibition: -9%
  Z score: 0.93

## CC(C(=O)N1C2CCC1c1ccccc12)n1cncn1 (stereo not drawn)
  % Inhibition: -8%
  Z score: 1.13

## CCc1ccc2ncc(C#N)c(N3CCC(C(=O)N4CCC5(CC4)OCCO5)CC3)c2c1
  % Inhibition: -4%
  Z score: 0.55

## O=C(N1CCOCC1)N1C2CCC1c1ccccc12
  % Inhibition: -13%
  Z score: 1.62

## CN1CC2CN(c3cc(C4CCC4)ncn3)CC2C1 (stereo not drawn)
  % Inhibition: -10%
  Z score: 1.29

## O=C(NC1(C(Cl)(Cl)Cl)OCCO1)C(Cl)(Cl)Cl
  % Inhibition: -15%
  Z score: 2.04

## Cc1ccc(NC(=O)NCC2CCN(C(=O)Oc3ccccc3)CC2)cc1C
  % Inhibition: 0%
  Z score: 0.04

## COc1ccc(C(=O)CN)cc1C(C)C
  % Inhibition: 3%
  Z score: -0.36

## COc1cccc(-n2c(-c3ccoc3)nc3ccccc3c2=O)c1
  % Inhibition: -5%
  Z score: 0.66

## Cc1[nH]c(=O)c(C(=O)Nc2ccc(-c3noc(=O)[nH]3)cc2)cc1-c1ccccc1
  % Inhibition: 3%
  Z score: -0.51

## O=S(=O)(F)c1ccc(-c2cn([C@H]3CC[C@@H]3O)nn2)cc1
  % Inhibition: 24%
  Z score: -2.83

## CCOc1ccccc1NC(=O)c1ccc2oc(=O)n(Cc3ccc(F)cc3)c2c1
  % Inhibition: 2%
  Z score: -0.31

## CCOC(Cn1cc(C(=O)Nc2nc3ccccc3[nH]2)nn1)OCC
  % Inhibition: -11%
  Z score: 1.25

## N#Cc1ccc(C(=O)N[C@@H]2[C@@H]3CCO[C@@H]3[C@H]2N2CCCC2)cn1
  % Inhibition: -2%
  Z score: 0.3

## C[C@H]1CCC(C)(C)N1C(=O)C12CCN(CC1)C2
  % Inhibition: -4%
  Z score: 0.42

## Cc1ccc(CC2(CCc3ccncc3)C(=O)NC(=O)NC2=O)s1
  % Inhibition: -3%
  Z score: 0.32

## CC(O)(C(=O)N1C2CCC1C(CO)C2)c1ccc(F)cc1 (stereo not drawn)
  % Inhibition: 5%
  Z score: -0.55

## COCC(O)CNC(Cc1cccnc1)c1cccc(Cl)c1 (stereo not drawn)
  % Inhibition: 1%
  Z score: -0.2

## O=C(c1cc(-c2ccc(Br)cc2)nc2ccccc12)N1CCC2(CC1)OCCO2
  % Inhibition: 1%
  Z score: -0.17

## CC(C)N1C[C@@H]2OCC(=O)N(Cc3ccccn3)[C@@H]2C1
  % Inhibition: 15%
  Z score: -1.77

## CN(C)S(=O)(=O)N1C2CCC1c1ccccc12
  % Inhibition: -3%
  Z score: 0.33

## CCCN(CCc1cccc(F)c1)Cc1nc(N(C)C)no1
  % Inhibition: -6%
  Z score: 0.71

## O=C(c1cccc(OCC(F)F)n1)N1CCC(Nc2ccccc2F)CC1
  % Inhibition: -3%
  Z score: 0.37

## Cc1ccc(C)n1C1CC(C)(C)NC(C)(C)C1
  % Inhibition: -5%
  Z score: 0.97

## CN(C)CC#CCNC(=O)NCc1ccccc1
  % Inhibition: -4%
  Z score: 0.7

## CC(C)n1cnc(C(=O)NCC2CCCCCC2)c1
  % Inhibition: -11%
  Z score: 1.85

## CN1C(=O)c2cccnc2O[C@H]2CN(Cc3ccncc3F)C[C@H]21
  % Inhibition: -8%
  Z score: 1.22

## Cc1ccc(C(=O)N2CC3(C[C@@H](C(=O)NC(C)C)N(C)C3)C2)cn1
  % Inhibition: -14%
  Z score: 1.66

## O=C(Nc1cccc(-c2noc(=O)[nH]2)c1)c1ccccc1C(=O)c1ccc(F)cc1
  % Inhibition: -4%
  Z score: 0.73

## O=C(c1cccnc1)N1C[C@@H](c2ccc(F)cc2)[C@@H]2[C@H]1C1CCN2CC1
  % Inhibition: -13%
  Z score: 2.41

## CC[C@@H](Cc1ccc(C)cc1)N(C)CC(=O)NC(N)=O
  % Inhibition: -17%
  Z score: 2.23

## CN1CCC[C@]2(C(=O)O)CN(c3ncccc3Cl)CC[C@@H]12
  % Inhibition: 1%
  Z score: -0.12

## Cc1csc(CNC(=O)C2CC3CCC2N3C(=O)C2CCC(F)(F)CC2)n1 (stereo not drawn)
  % Inhibition: -6%
  Z score: 0.73

## CC(C)c1cccc(OC23CCCN(CC2)C3)c1 (stereo not drawn)
  % Inhibition: -6%
  Z score: 1.2

## COc1c(C)[nH]cc(CN(C)c2nc(C(C)C)ns2)c1=O
  % Inhibition: -10%
  Z score: 1.62

## FC(F)(F)c1cc(N(C2CCNCC2)C2CC2)ncn1
  % Inhibition: -2%
  Z score: 0.4

## Cc1cccc(-c2cc(C(=O)N3CCC4(CC3)OCCO4)c3ccc(Cl)c(C)c3n2)c1
  % Inhibition: -12%
  Z score: 1.67

## FC(F)(F)c1cccc(C2=CCNCC2)n1
  % Inhibition: -7%
  Z score: 1.28

## CCc1nccn1C[C@H](C)NCc1noc(C(N)=O)n1
  % Inhibition: -8%
  Z score: 1.6

## c1ccc2c(c1)C1CCC2N1CCCN1CCOCC1
  % Inhibition: -5%
  Z score: 0.43

## Cc1ncsc1CN[C@@H](C)Cc1ccccn1
  % Inhibition: -17%
  Z score: 2.16

## C[C@@H](Cc1ccco1)N1CCC(C#N)CC1
  % Inhibition: -18%
  Z score: 2.32

## CC(C)N1C2CCC1CN(Cc1ccncc1)CC2 (stereo not drawn)
  % Inhibition: -11%
  Z score: 1.53

## O=c1[nH]c2ccc(S(=O)(=O)Nc3ccc4c(c3)OC3(CCCCC3)O4)cc2o1
  % Inhibition: -7%
  Z score: 1.29

## O=C(c1cc2c(s1)CCCCCC2)N1CCC2(CC1)OCCO2
  % Inhibition: 8%
  Z score: -0.96

## CN1CCN(C(=O)Cc2ccc3c(c2)OCO3)C[C@]12CCNC(=O)CC2
  % Inhibition: -10%
  Z score: 1.68

## CC[C@@H](Cc1ccccc1)N(C)Cc1nc(N)nc(N(C)C)n1
  % Inhibition: 30%
  Z score: -3.45

## Cc1ccc([C@H]2CN(C(=O)c3[nH]cnc3C)[C@@H]3C4CCN(CC4)[C@H]23)cc1
  % Inhibition: -1%
  Z score: 0.11

## Cc1ccc(OCC(=O)N2CCN(C3CCC(c4ccccc4)CC3)CC2)cc1 (stereo not drawn)
  % Inhibition: 26%
  Z score: -3

## Cc1ccc(-c2cn(CC(=O)NCc3ccccc3C)c(=O)o2)cc1
  % Inhibition: -15%
  Z score: 1.52

## O=C(Cc1cnc2ccccn12)N1C[C@H]2CC[C@@H](C1)N(Cc1ccccn1)C2
  % Inhibition: 34%
  Z score: -1.8

## COc1ccc2c(N3CCC(C(=O)N4CCC5(CC4)OCCO5)CC3)c(C#N)cnc2c1
  % Inhibition: 4%
  Z score: -0.69

## FCC1CCN(Cc2cncs2)CC1
  % Inhibition: -11%
  Z score: 1.26

## FC1(F)C[C@@H](COc2cccnc2)N(C2CCCCC2)C1
  % Inhibition: 24%
  Z score: -4.05

## O=c1nc(CCNS(=O)(=O)C2CC2)[nH]o1
  % Inhibition: 10%
  Z score: -1.84

## CN1CC[C@@]2(CCC1=O)CN(c1ncnc3ccsc13)CCN2C
  % Inhibition: 6%
  Z score: -1.05

## C[C@]12CC[C@H](O)C[C@@H]1CC[C@@H]1[C@@H]2CC[C@@]2(C)[C@H]1CC[C@]2(O)C#N
  % Inhibition: -7%
  Z score: 0.96

## Cc1ncccc1OC[C@H]1CCCN1C(=O)c1cccc2[nH]c(=O)oc12
  % Inhibition: -10%
  Z score: 1.03

## CN(C)c1nc2cc(F)ccc2cc1CNCCc1ccccc1
  % Inhibition: -7%
  Z score: 1.27

## NC(=O)OCCNC(=O)Oc1ccc(Cl)cc1Cl
  % Inhibition: 5%
  Z score: -0.62

## Cc1cc(N2CC3OCCN(Cc4ccccc4)C3C2)nc(C)n1 (stereo not drawn)
  % Inhibition: -18%
  Z score: 2.78

## CN1C[C@@H]2CCCN(S(=O)(=O)c3cncc(F)c3)[C@@H]2C1
  % Inhibition: -6%
  Z score: 1.15
